In patent US10456379B2, “Imidazole-based antimicrobial agents” (priority 2014, dated 2019):

Test system: Streptococcus pneumoniae (Chester, ATCC49619)
Assay: Broth microdilution MIC assay, Streptococcus pneumoniae
Format: cell-based
Conditions: MIC class score, MIC100, broth microdilution

Question: `Cc1[nH]c(-c2cnn(-c3ccc(F)cc3)c2)nc1-c1ccccc1` [compound 166] was tested. Which “Antibacterial activity Streptococcus pneumoniae” value did it give?
Answer: The value was 1 (MIC100 of 11-20 μg/ml or an MIC50 of <10 μg/ml).

Question: Which “Antibacterial activity Streptococcus pneumoniae” value does the source give for `Cc1nc(-c2ccc(-c3cc4ccccc4o3)o2)[nH]c1-c1ccccc1` [compound 140] here?
Answer: Its value is 4 (MIC of 1 μg/ml or less for preventing streptococcal growth 100% (MIC100)).

Question: With `Cc1[nH]c(-c2cnn(-c3ccccc3)c2)nc1-c1ccccc1` [compound 167] as the compound, how does the “Antibacterial activity Streptococcus pneumoniae” value read?
Answer: The value was 1 (MIC100 of 11-20 μg/ml or an MIC50 of <10 μg/ml).

Question: Which “Antibacterial activity Streptococcus pneumoniae” value does the source give for `Clc1ccccc1-c1ccc(-c2ncc(-c3ccccc3)[nH]2)s1` [compound 81] here?
Answer: Its value is 1 (MIC100 of 11-20 μg/ml or an MIC50 of <10 μg/ml).

Question: With `Cc1nc(-c2ccc(-c3ccc(F)cc3F)o2)[nH]c1-c1ccccc1` [compound 147] as the compound, how does the “Antibacterial activity Streptococcus pneumoniae” value read?
Answer: Its value is 4 (MIC of 1 μg/ml or less for preventing streptococcal growth 100% (MIC100)).

Question: How did the “Antibacterial activity Streptococcus pneumoniae” value turn out when `Cc1[nH]c(-c2ccc(-c3cccc(F)c3)s2)nc1-c1ccccc1` [compound 117] was run?
Answer: The value was 1 (MIC100 of 11-20 μg/ml or an MIC50 of <10 μg/ml).

Question: For `Cc1nc(-c2ccc(-c3ccc(N4CCN(C)CC4)cc3)o2)[nH]c1-c1ccccc1` [compound 141], which “Antibacterial activity Streptococcus pneumoniae” value is on record?
Answer: Its value is 1 (MIC100 of 11-20 μg/ml or an MIC50 of <10 μg/ml).

Question: With `Cc1nc(-c2ccc(-c3ccc4c(c3)CC(=O)N4)o2)[nH]c1-c1ccccc1` [compound 151] as the compound, how does the “Antibacterial activity Streptococcus pneumoniae” value read?
Answer: Its value is 1 (MIC100 of 11-20 μg/ml or an MIC50 of <10 μg/ml).

Question: For `Cc1nc(-c2ccc(-c3ccccc3F)o2)[nH]c1Cc1ccc(O)cc1` [compound 78], which “Antibacterial activity Streptococcus pneumoniae” value is on record?
Answer: The value was 1 (MIC100 of 11-20 μg/ml or an MIC50 of <10 μg/ml).

Question: How did the “Antibacterial activity Streptococcus pneumoniae” value turn out when `FC(F)(F)c1ccccc1-c1ccc(-c2nc(Cl)c(-c3ccccc3)[nH]2)o1` [compound 65] was run?
Answer: The value was 4 (MIC of 1 μg/ml or less for preventing streptococcal growth 100% (MIC100)).

Question: With `Cc1nc(-c2ccc(-c3ccccc3O)o2)[nH]c1-c1ccccc1` [compound 149] as the compound, how does the “Antibacterial activity Streptococcus pneumoniae” value read?
Answer: The value was 1 (MIC100 of 11-20 μg/ml or an MIC50 of <10 μg/ml).

Question: For `Cc1[nH]c(-c2ccc(-c3ccc(Br)cc3)s2)nc1-c1ccccc1` [compound 118], which “Antibacterial activity Streptococcus pneumoniae” value is on record?
Answer: Its value is 1 (MIC100 of 11-20 μg/ml or an MIC50 of <10 μg/ml).

Question: `Cc1nc(-c2ccc(-c3ccc4cn[nH]c4c3)o2)[nH]c1-c1ccccc1` [compound 156] was tested. Which “Antibacterial activity Streptococcus pneumoniae” value did it give?
Answer: Its value is 1 (MIC100 of 11-20 μg/ml or an MIC50 of <10 μg/ml).

Question: `Cc1nc(-c2ccc(-c3ccccc3OC(F)(F)F)o2)[nH]c1C` [compound 85] was tested. Which “Antibacterial activity Streptococcus pneumoniae” value did it give?
Answer: The value was 4 (MIC of 1 μg/ml or less for preventing streptococcal growth 100% (MIC100)).

Question: Which “Antibacterial activity Streptococcus pneumoniae” value does the source give for `Cc1nc(-c2ccc(-c3ccc(Cl)cc3)o2)[nH]c1-c1ccccc1` [compound 5] here?
Answer: Its value is 4 (MIC of 1 μg/ml or less for preventing streptococcal growth 100% (MIC100)).

Test system: Human keratinocytes (HaCaT cells)
Assay: Human cytotoxicity assay in vitro (CellTiter-Glo), keratinocytes
Format: cell-based
Conditions: not given

Question: With `Cc1[nH]c(-c2ccc(-c3ccccc3C(F)(F)F)o2)nc1-c1ccc(Br)cc1` [compound 25] as the compound, how does the “cytotoxicity, cell line K (keratinocytes), class” value (“cytotoxicity, cell line K” below) read?
Answer: The value was 0 (not causing loss of cell viability at concentrations of 50 μM or higher).

Question: For `Cc1[nH]c(-c2ccc(-c3cccc(Cl)c3Cl)o2)nc1-c1ccccc1` [compound 2], which “cytotoxicity, cell line K” value is on record?
Answer: Its value is 1 (causing less than 50% inhibition of cell viability at 50 μM).

Question: For `Cc1ccccc1-c1ccc(-c2nc(-c3ccccc3)c(C)[nH]2)o1` [compound 61], which “cytotoxicity, cell line K” value is on record?
Answer: Its value is 2 (causing >50% inhibition of cell viability at 25 μM).

Question: Which “cytotoxicity, cell line K” value does the source give for `Cc1nc(-c2ccc(-c3ccccc3C(F)(F)F)o2)[nH]c1-c1ccccc1Cl` [compound 20] here?
Answer: The value was 0 (not causing loss of cell viability at concentrations of 50 μM or higher).

Question: How did the “cytotoxicity, cell line K” value turn out when `Cc1[nH]c(-c2ccc(-c3ccccc3OC(F)(F)F)o2)nc1-c1ccc(C(F)(F)F)cc1` [compound 26] was run?
Answer: The value was 0 (not causing loss of cell viability at concentrations of 50 μM or higher).

Question: Which “cytotoxicity, cell line K” value does the source give for `Cc1[nH]c(-c2cc(C)n(-c3ccc(C(C)C)cc3)c2C)nc1-c1ccccc1` [compound 58] here?
Answer: The value was 2 (causing >50% inhibition of cell viability at 25 μM).

Question: How did the “cytotoxicity, cell line K” value turn out when `Cc1[nH]c(-c2ccc(-c3ccccc3C(F)(F)F)o2)nc1-c1cccc(Cl)c1` [compound 22] was run?
Answer: The value was 2 (causing >50% inhibition of cell viability at 25 μM).

Question: `CCc1ccc(-c2[nH]c(-c3ccc(-c4ccccc4C(F)(F)F)o3)nc2C)cc1` [compound 28] was tested. Which “cytotoxicity, cell line K” value did it give?
Answer: Its value is 0 (not causing loss of cell viability at concentrations of 50 μM or higher).

Question: `Cc1[nH]c(-c2ccc(-c3ccc(OC(F)(F)F)cc3)o2)nc1-c1ccc(Cl)cc1` [compound 48] was tested. Which “cytotoxicity, cell line K” value did it give?
Answer: The value was 1 (causing less than 50% inhibition of cell viability at 50 μM).

Question: Which “cytotoxicity, cell line K” value does the source give for `Cc1nc(-c2ccc(-c3ccccc3N(C)C)o2)[nH]c1-c1ccccc1` [compound 71] here?
Answer: The value was 1 (causing less than 50% inhibition of cell viability at 50 μM).

Question: For `Cc1cccc(C)c1-c1ccc(-c2nc(-c3ccccc3)c(C)[nH]2)o1` [compound 62], which “cytotoxicity, cell line K” value is on record?
Answer: The value was 2 (causing >50% inhibition of cell viability at 25 μM).

Question: With `Cc1[nH]c(-c2ccc(-c3ccc(C(F)(F)F)c(Cl)c3)o2)nc1-c1ccc(F)cc1` [compound 49] as the compound, how does the “cytotoxicity, cell line K” value read?
Answer: The value was 2 (causing >50% inhibition of cell viability at 25 μM).

Question: `Cc1ccc(-c2ccc(-c3nc(-c4ccccc4)c(C)[nH]3)s2)cc1` [compound 54] was tested. Which “cytotoxicity, cell line K” value did it give?
Answer: The value was 1 (causing less than 50% inhibition of cell viability at 50 μM).

Question: For `Cc1[nH]c(-c2csc(-c3cccc(Br)c3)n2)nc1-c1ccccc1` [compound 14], which “cytotoxicity, cell line K” value is on record?
Answer: Its value is 1 (causing less than 50% inhibition of cell viability at 50 μM).

Question: Which “cytotoxicity, cell line K” value does the source give for `Cc1[nH]c(-c2ccc(-c3cccc(Cl)c3)s2)nc1-c1ccccc1` [compound 12] here?
Answer: The value was 2 (causing >50% inhibition of cell viability at 25 μM).

Question: With `Cc1[nH]c(-c2coc(-c3ccccc3C(F)(F)F)c2)nc1-c1ccccc1` [compound 72] as the compound, how does the “cytotoxicity, cell line K” value read?
Answer: Its value is 2 (causing >50% inhibition of cell viability at 25 μM).

Question: `Cc1ccc(-c2nc(-c3nc(-c4ccccc4)c(C)[nH]3)co2)cc1` [compound 57] was tested. Which “cytotoxicity, cell line K” value did it give?
Answer: The value was 3 (causing more than 50% inhibition of cell viability at 10 μM).

Question: With `CN(C)Cc1[nH]c(-c2ccc(-c3ccccc3C(F)(F)F)o2)nc1-c1ccccc1` [compound 70] as the compound, how does the “cytotoxicity, cell line K” value read?
Answer: Its value is 2 (causing >50% inhibition of cell viability at 25 μM).

Question: `Cc1[nH]c(-c2cc(C)n(-c3ccc4c(c3)CCC4)c2C)nc1-c1ccccc1` [compound 59] was tested. Which “cytotoxicity, cell line K” value did it give?
Answer: The value was 2 (causing >50% inhibition of cell viability at 25 μM).

Question: `Cc1[nH]c(-c2ccc(-c3cc(C(F)(F)F)ccc3Cl)o2)nc1-c1ccccc1` [compound 40] was tested. Which “cytotoxicity, cell line K” value did it give?
Answer: The value was 1 (causing less than 50% inhibition of cell viability at 50 μM).

Question: Which “cytotoxicity, cell line K” value does the source give for `Cc1[nH]c(-c2ccc(-c3ccc(F)cc3)s2)nc1-c1ccccc1` [compound 7] here?
Answer: The value was 2 (causing >50% inhibition of cell viability at 25 μM).

Question: How did the “cytotoxicity, cell line K” value turn out when `Cc1nc(-c2ccc(-c3cc(F)ccc3C(F)(F)F)o2)[nH]c1-c1ccccc1` [31a] was run?
Answer: The value was 1 (causing less than 50% inhibition of cell viability at 50 μM).

Question: Which “cytotoxicity, cell line K” value does the source give for `CCc1ccc(-c2ccc(-c3nc(-c4ccccc4)c(C)[nH]3)o2)cc1` [compound 53] here?
Answer: Its value is 1 (causing less than 50% inhibition of cell viability at 50 μM).

Question: Which “cytotoxicity, cell line K” value does the source give for `Cc1[nH]c(-c2cc(C)n(-c3cccc(C(F)(F)F)c3)c2C)nc1-c1ccccc1` [compound 36] here?
Answer: Its value is 2 (causing >50% inhibition of cell viability at 25 μM).

Question: Which “cytotoxicity, cell line K” value does the source give for `Cc1ccc(-c2nc(-c3nc(-c4ccccc4)c(C)[nH]3)cs2)cc1` [compound 56] here?
Answer: Its value is 3 (causing more than 50% inhibition of cell viability at 10 μM).

Question: Which “cytotoxicity, cell line K” value does the source give for `Cc1[nH]c(-c2ccc(-c3ccc(OC(F)(F)F)c(Cl)c3)o2)nc1-c1ccc(Cl)cc1` [compound 50] here?
Answer: Its value is 1 (causing less than 50% inhibition of cell viability at 50 μM).

Question: For `FC(F)(F)Oc1ccccc1-c1ccc(-c2nc(-c3ccc(Cl)cc3Cl)c[nH]2)o1` [compound 68], which “cytotoxicity, cell line K” value is on record?
Answer: Its value is 2 (causing >50% inhibition of cell viability at 25 μM).

Question: How did the “cytotoxicity, cell line K” value turn out when `FC(F)(F)Oc1ccccc1-c1ccc(-c2nc(-c3ccccc3Cl)c[nH]2)o1` [compound 67] was run?
Answer: Its value is 2 (causing >50% inhibition of cell viability at 25 μM).

Question: For `Cc1[nH]c(-c2ccc(-c3ccc(Cl)cc3)s2)nc1-c1ccccc1` [compound 6], which “cytotoxicity, cell line K” value is on record?
Answer: Its value is 0 (not causing loss of cell viability at concentrations of 50 μM or higher).

Question: How did the “cytotoxicity, cell line K” value turn out when `Cc1[nH]c(-c2ccc(-c3ccccc3)s2)nc1-c1ccccc1` [compound 74] was run?
Answer: Its value is 3 (causing more than 50% inhibition of cell viability at 10 μM).

Question: How did the “cytotoxicity, cell line K” value turn out when `Cc1[nH]c(-c2ccc(-c3cccc(Br)c3)s2)nc1-c1ccccc1` [compound 13] was run?
Answer: Its value is 1 (causing less than 50% inhibition of cell viability at 50 μM).

Question: For `Cc1nc(-c2ccc(-c3cccc(OC(F)(F)F)c3)o2)[nH]c1-c1ccccc1` [compound 34], which “cytotoxicity, cell line K” value is on record?
Answer: The value was 2 (causing >50% inhibition of cell viability at 25 μM).

Question: How did the “cytotoxicity, cell line K” value turn out when `Cc1[nH]c(-c2csc(-c3ccc(F)cc3)n2)nc1-c1ccccc1` [compound 11] was run?
Answer: The value was 2 (causing >50% inhibition of cell viability at 25 μM).

Question: Which “cytotoxicity, cell line K” value does the source give for `Cc1nc(-c2ccc(-c3cc(C(F)(F)F)cc(C(F)(F)F)c3)o2)[nH]c1-c1ccccc1` [compound 35] here?
Answer: The value was 1 (causing less than 50% inhibition of cell viability at 50 μM).

Question: `Cc1[nH]c(-c2cc(C)n(-c3ccc(F)c(F)c3F)c2C)nc1-c1ccccc1` [compound 10] was tested. Which “cytotoxicity, cell line K” value did it give?
Answer: Its value is 2 (causing >50% inhibition of cell viability at 25 μM).
